About 540 (0.36%) of roughly 150,000 compounds showed an effect of 50% or more. The list shows a part of the results.

The test system of the assay is Plasmodium falciparum. The assay can be described thus: Primary screen in NF54 nanoGlo assay, in single point, at 2uM, 72h; a lower Z score goes with more inhibition. It is filed as functional, Erythrocyte. The conditions noted are these: timepoint 72 hour.
On to `NCCCN(c1ccccc1)c1ncccn1`, for which the % Inhibition (as a rule, the change of the read-out against control, counted positive when it falls) was -5% and the Z score came to 0.62.

For the molecule `N#Cc1ccc(-c2nc(CC(N)=O)nn2C2Cc3ccccc3C2)cn1`, the “% Inhibition” value is given as -1% and the Z score was 0.19.

With `COc1ccc(-n2nc(C)c3sc(N4CCN(C(=O)c5ccccc5F)CC4)nc32)cc1`, the “% Inhibition” value was -9% and the Z score was 1.06.

For the molecule `O=C(O)[C@@H]1CN(C(=O)Cc2ccccc2Cl)c2ccccc2O1`, the “% Inhibition” value is -9% and the Z score is 1.28.

Turning to `Cc1ccn(-c2ccnc(N3CCN(c4ccccc4F)CC3)n2)n1`, the “% Inhibition” value was -11% and the Z score is recorded as 1.65.

As for `CCC(CC)C(=O)N1CCN(c2cc(-n3ccc(C)n3)ncn2)CC1`, the “% Inhibition” value is reported as -8% and the Z score stood at 0.9.

As to `C[C@@]1(C(=O)NCc2ccccc2)CCC(=O)N1CCc1cccs1`, the “% Inhibition” value is listed as -1% and the Z score was 0.08.

As to `COc1cccc(CC(=O)N2CC3CC2CO3)c1` (centres undefined), the “% Inhibition” value is on record as -7% and the Z score was 0.84.

For `CC(C)(C(=O)N1CCO[C@@H](CC(=O)O)C1)c1cccs1`, the “% Inhibition” value came out at 1% and the Z score is recorded as -0.08.

As to `Cn1cc2c(n1)c(=O)n(Cc1ccc(Cl)cc1)c1nn(Cc3ccccc3F)c(=O)n21`, the “% Inhibition” value was found to be 4% and the Z score is -0.5.

Consider `CCCCc1nc(C)sc1C(=O)Nc1ncc[nH]1`, for which the “% Inhibition” value was 26% and the Z score is reported as -2.91.

In the case of `CCC(C)Oc1ccc(CN2C[C@H]3C[C@H](O)[C@@H](O)C[C@H]3C2)cc1Cl` (some centres undefined), the “% Inhibition” value was -3% and the Z score is given as 0.43.

For the molecule `C=CCn1c(-c2ccc(F)cc2)cn2cc(C(=O)N3CC(O)C3)nc2c1=O`, the “% Inhibition” value is on record as -3% and the Z score was 0.53.

For the molecule `Cc1ccc(CN(C(=O)COc2ccc(Cl)c(C)c2)c2ccccn2)o1`, the “% Inhibition” value is on record as 9% and the Z score is listed as -1.06.

Regarding `Cc1ccc(CN[C@@H](C)c2nccnc2C)c(Cl)c1`, the “% Inhibition” value is recorded as -13% and the Z score came to 2.63.

In the case of `Clc1cccc(-c2cn[nH]c2[C@H]2CCCNC2)c1`, the “% Inhibition” value turned out to be 1% and the Z score is on record as -0.27.

In the case of `CCC[C@@]1(C(=O)OCC)CCCN1Cc1csc(CC(=O)NC)n1`, the “% Inhibition” value was -8% and the Z score is 0.97.

Regarding `Cc1ccccc1[C@@H](C)C(=O)NC1(c2nnn[nH]2)CC1`, the “% Inhibition” value is recorded as 0% and the Z score was -0.07.

Turning to `COc1cccc(CC[C@H]2CCCN(S(=O)(=O)N(C)C)C2)c1`, the “% Inhibition” value was determined as 11% and the Z score was -2.17.

Turning to `COc1ncccc1C(=O)N1C2C=CCC1CC2` (centres undefined), the “% Inhibition” value is listed as 1% and the Z score is -0.24.

In the case of `O=C(Cc1cnn2ccccc12)N1CC[C@@H]2CC[C@@]21c1cccnc1`, the “% Inhibition” value is listed as -10% and the Z score was 1.67.

Regarding `Cc1ccc(N2N=C(C(=O)Nc3ccc4c(c3)C(=O)N(C)C4=O)CCC2=O)cc1Cl`, the “% Inhibition” value is -10% and the Z score was 1.71.

As to `Cc1c(NC(=O)C2=COCCO2)c(=O)n(-c2ccccc2)n1C`, the “% Inhibition” value is recorded as 9% and the Z score was -1.23.

On to `Cc1ccc(O[C@H]2CCCN(C(=O)c3ccsc3)C2)nn1`, for which the “% Inhibition” value is reported as -9% and the Z score is reported as 1.55.

Consider `NC(=O)N1CCC(NC(=O)C2CC2c2cc(Cl)cc(Cl)c2)C1` (centres undefined), for which the “% Inhibition” value is given as 15% and the Z score is -1.93.

With `O=C(Nc1cccc(C2CCOCC2)c1)c1cccnc1O`, the “% Inhibition” value was determined as 2% and the Z score is on record as -0.24.

With `C[C@H](NCCc1cccc2cccnc12)c1ccc(-n2cnnn2)cc1`, the “% Inhibition” value is 3% and the Z score was -0.42.

Take `CC(C)N(CC(F)(F)F)C(=O)Cn1nnnc1C1CC1`: the “% Inhibition” value was determined as 6% and the Z score was -1.03.

With `CCC(=O)N1CCCN(c2ccc(C#N)nc2)CC1`, the “% Inhibition” value was -10% and the Z score worked out at 1.3.

With `COCCCNC(=O)Cc1c(C)n(C)c2nc(-c3ccccc3)nn2c1=O`, the “% Inhibition” value is on record as -10% and the Z score is 0.98.

For `Cc1noc(C)c1CC(=O)O[C@@H](C)C(=O)N1CC(=O)Nc2ccccc21`, the “% Inhibition” value is -31% and the Z score turned out to be 3.61.

As to `O=C(Nc1ccc(F)cc1Br)c1cnc(OC2CCOCC2)c(Cl)c1`, the “% Inhibition” value is on record as 1% and the Z score is recorded as -0.08.

Consider `O=C(c1cc2ncccn2n1)N1CCc2ccccc2C1`, for which the “% Inhibition” value was determined as 36% and the Z score is reported as -1.16.

For `CC(=O)Nc1ccc(-c2c(C(C)C)nn(-c3cccc(F)c3)c2OC(C)=O)cc1`, the “% Inhibition” value is -7% and the Z score is 1.21.

Turning to `O=C(COc1ccc(Nc2ccccc2)cc1)N1CCN(S(=O)(=O)c2cccc(F)c2)CC1`, the “% Inhibition” value was 1% and the Z score is recorded as -0.15.

Turning to `CN1N=C(C(=O)Nc2cc(CCc3ccccc3)ccn2)CCC1=O`, the “% Inhibition” value is recorded as -10% and the Z score is on record as 1.79.

Regarding `O=C(Nc1ccccc1Cl)N1C[C@@H]2C[C@H](NS(=O)(=O)c3ccccc3)[C@H]1C2`, the “% Inhibition” value was 30% and the Z score is listed as -3.36.

For the molecule `CCOC(=O)C[C@H]1COCCN1C(=O)c1cn(C(c2ccccc2)c2ccccc2)nn1`, the “% Inhibition” value is -10% and the Z score is reported as 1.28.

On to `NC(Cc1ccccc1)=NOCC(=O)NC1CCCCCC1`, for which the “% Inhibition” value is on record as -31% and the Z score is on record as 3.65.

On to `CC(C)(C)c1ccc(Cn2cnc3c2c(=O)n(C2CC2)c(=O)n3-c2ccc(F)cc2F)cc1`, for which the “% Inhibition” value was 0% and the Z score is reported as 0.05.

Turning to `CN1N=C(C(=O)N2CC3CCCCC3C2)CCC1=O` (centres undefined), the “% Inhibition” value is listed as -11% and the Z score came to 1.41.

Regarding `CC[C@H](Nc1nc(C)nc2c1cnn2C)c1nc2ccccc2[nH]1`, the “% Inhibition” value was 3% and the Z score is listed as -0.47.

Source of the values: ChEMBL document CHEMBL4888484, “Replenishing the malaria drug discovery pipeline: Screening and hit evaluation of the MMV Hit Generation Library 1 (HGL1) against asexual blood stage Plasmodium falciparum ,using a nano luciferase reporter read-out” (2022).
